This passage reports switch fluorescence ratio results from the supplement of paper PMC10126150.

This series concerns ATP. Description: switch fluorescence ratio, 500 uM ATP over buffer (Cy3 cluster intensity, sum of 5 cycles each) (fold (ratio)); higher = stronger signal-on switching upon ATP binding; sequences stand for … in TCGTCGGCAGCGTCAGATGTGTATAAGAGACAGTTTTTTTTTTTTTTTTTTTTTTTTT…TC. The conditions noted are these: aptamer strand: ATP DNA aptamer (quencher-CACCTGGGGGAGTATTGCGGAGGAAGG + anchor), 100 nM annealed; ATP concentration: 500 uM; one replicate. In outline:
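Imaging in selection buffer was followed by imaging after 15 min with 500 uM ATP at 22 °C, for Cy3-labelled switching-strand clusters annealed to 100 nM quencher-labelled ATP aptamer on a modified Illumina MiSeq flow-cell. Five of these buffer/ATP cycles ran, separated by NaOH stripping and re-annealing. The fluorescence ratio per cluster is summed target-cycle over summed buffer-cycle Cy3 intensity, averaged per switch-domain sequence; clusters outside 100-1000 RFU were removed.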

Sequences with one replicate were seen in a single cluster, so their values are uncertain.
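Note: ATP exposure 15 min at 22 °C before imaging.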

Consider TTTGATGTG, for which the switch fluorescence ratio is 1.01.

With TACGATTAGG, the switch fluorescence ratio stood at 1.01.

Turning to AGTTCATAGT, the switch fluorescence ratio stood at 0.953.

Regarding AGATGTAGTC, the switch fluorescence ratio came to 1.

For TTTAGGGGT, the switch fluorescence ratio stood at 0.995.

AAGATCGTCC: the switch fluorescence ratio is 1.07.

With AACTGAGCTG, the switch fluorescence ratio is 1.07.

CTTCCAGTAG: the switch fluorescence ratio was determined as 1.4.

In the case of GGAGTCGATG, the switch fluorescence ratio was 0.987.

GGATGAATAC: the switch fluorescence ratio was 1.31.

As to TAGGTTAGG, the switch fluorescence ratio is 1.02.

As for TTGCGTTAC, the switch fluorescence ratio turned out to be 2.62.

As to TATTCTGTG, the switch fluorescence ratio is 1.01.

Turning to TTAATGTGA, the switch fluorescence ratio came to 0.998.

As for GGCTAAAGAT, the switch fluorescence ratio was 0.995.

In the case of TATCCACGCC, the switch fluorescence ratio was 1.13.

Consider CTGACTGAAA, for which the switch fluorescence ratio came out at 0.982.

Consider GAGTTTGCG, for which the switch fluorescence ratio worked out at 0.986.

On to TTTACACGCA, for which the switch fluorescence ratio was found to be 1.14.

For TGTTGACAGA, the switch fluorescence ratio turned out to be 1.

Regarding TGGCTGGGCA, the switch fluorescence ratio was 0.975.

For the sequence CTTGGATCTT, the switch fluorescence ratio turned out to be 0.98.

For GGTACTCTGG, the switch fluorescence ratio was 1.03.

Regarding GCACAAGGCA, the switch fluorescence ratio came to 1.04.

Consider ATCCGGTAAT, for which the switch fluorescence ratio was 1.1.

With CGATTATACC, the switch fluorescence ratio stood at 1.14.

In the case of TTACGTAATT, the switch fluorescence ratio turned out to be 1.16.

On to ACAAACCTCG, for which the switch fluorescence ratio stood at 1.12.

Consider TCCGCCGTGG, for which the switch fluorescence ratio was determined as 0.988.

On to AAATTGGATG, for which the switch fluorescence ratio was determined as 0.972.

Take GGGTATTTAA: the switch fluorescence ratio was 0.956.

Regarding AACAACCGAC, the switch fluorescence ratio was 1.83.

For CTTTGAGGTT, the switch fluorescence ratio turned out to be 1.35.

AGAAACAAGT: the switch fluorescence ratio worked out at 0.985.

Regarding CTAGTCCCGC, the switch fluorescence ratio worked out at 0.969.

As for TCTGGTGCTT, the switch fluorescence ratio stood at 1.04.

As for GGACCCGGAA, the switch fluorescence ratio turned out to be 1.28.

Take TGAGGGACGG: the switch fluorescence ratio is 0.973.

TCTTTTCTCT: the switch fluorescence ratio came to 1.01.

Take TGGCTTGTCC: the switch fluorescence ratio turned out to be 1.15.

Take AAGCCGTATC: the switch fluorescence ratio is 0.972.

Consider CGTATTTCGA, for which the switch fluorescence ratio amounted to 1.01.

Take TGATTCCGG: the switch fluorescence ratio worked out at 0.975.

Turning to GATCTGGTTA, the switch fluorescence ratio stood at 0.978.

For TATATACGAT, the switch fluorescence ratio was found to be 1.06.

Consider TTCTCTTCTG, for which the switch fluorescence ratio came out at 1.01.

As to AAGGATTTGT, the switch fluorescence ratio was 0.966.

In the case of AGAGTTGTCC, the switch fluorescence ratio was found to be 1.03.

As for TATGTGATTC, the switch fluorescence ratio worked out at 0.989.

For AAGAACACTT, the switch fluorescence ratio was determined as 1.

Consider GTTTCGAGCA, for which the switch fluorescence ratio turned out to be 1.1.

Regarding CTCTTCCTTT, the switch fluorescence ratio turned out to be 1.31.

With CATATTGTGT, the switch fluorescence ratio came to 0.968.

Take CGATATATTC: the switch fluorescence ratio stood at 1.06.

For ATTATAGGGC, the switch fluorescence ratio came to 1.02.

For ATCTATTGCG, the switch fluorescence ratio was determined as 1.03.

For the sequence TGTAAATGCT, the switch fluorescence ratio is 0.983.

Turning to GCTGGTAAC, the switch fluorescence ratio came to 1.

With TTGACTCCTA, the switch fluorescence ratio is 1.1.

Turning to TCGGTCTCTG, the switch fluorescence ratio came to 0.953.

Take ATACTAGT: the switch fluorescence ratio stood at 1.01.

Consider ACATTATTAG, for which the switch fluorescence ratio was 1.05.

In the case of GAACGGCCAA, the switch fluorescence ratio came to 1.05.

As to TTTCTCCTAT, the switch fluorescence ratio is 1.03.

Take TATGAATGTA: the switch fluorescence ratio came out at 1.

Take ACTTGAGGT: the switch fluorescence ratio was determined as 0.95.

With GATCGTTTAG, the switch fluorescence ratio came to 1.02.
